US20220144930A1

Molecular target: VEGF-165, VEGFC and VEGFD mixture
Test: cell-based or functional assay

B1: humanized antibody VEGF-H988 (antibody, human IgG1, kappa)
heavy: QSVQESGPGLVKPSETLSLTCTVSGIDLSSYAISWVRQPPGKGLEYIGYIWNDLFTYYASWAKGRVTISVDTSKNQVDLKLSSVTAADTAVYFCARGTLGDYGGMDPWGQGTLVTVSS[sequence of human IgG1 constant region omitted]
light: ELQLTQSPSSLSASVGDRVTITCQSSKFLWQGRRLAWYQQKPGKVPKLLIYGASTLASGVPSRFKGSGSGTDFTLTISSLQPEDVATYYCAGYKSYDGDVVGFGGGTKVEIKRTVAAPSVFIFPPSDEQLKSGTASVVCLLNNFYPREAKVQWKVDNALQSGNSQESVTEQDSKDSTYSLSSTLTLSKADYEKHKVYACEVTHQGLSSPVTKSFNRGEC
Maximum neutralization rate Emax (%), VEGF165, VEGFC and VEGFD mixture, HUVEC proliferation: 86.1%
